From the supplement of paper PMC11417369
± gives the standard deviation of the averaged measurements. This is one part of the list.

system: PfAP2-G AP2 domain (GST-tagged); assay: gcPBM binding intensity (ln(normalized median fluorescence intensity)); higher = stronger DNA binding
How it was run: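 An Agilent 4 × 180k array of primer-extended double-stranded 36-bp intergenic genomic probes, with negative controls, was incubated for 1 h with GST-tagged P. falciparum DNA-binding domains expressed in E. coli. Alexa488 anti-GST antibody detected bound protein, scanned at 488 nm. Binding intensity is the highest Masliner-normalised natural-log median intensity across replicate spots of either probe orientation.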

| Sequence | gcPBM binding intensity (ln) |
| --- | --- |
| TTATTTATTTATAATAGTACAATTTAATGATCTTCT [XGTACX_site4831] | 10.8 ± 0.71 |
| TGTTTTATACTAAATGAACACACACCCATATATATA [CACACA_site7912] | 10.3 ± 0.26 |
| AATAATATATATATATATATAATAAAATATAAATAG [CACACA_negctrl_site1515] | 9.615 ± 0.035 |
| CCAACATGCCCACGCACACACAAAAAAAGCATGCAT [CACACA_site4217] | 10.4 ± 0.28 |
| ATAAATACAGATAACACACACATATATATATATATA [CACACA_site5431] | 10.1 ± 0.23 |
| ATATGAAATAATAATAGTACATAAAATAATTTTACT [XGTACX_site6964] | 11.2 ± 0.91 |
| ATAGAAATATATATATGTACATATAGATAAATCTAT [XGTACX_site7833] | 11.1 ± 0.58 |
| AAAAATAACGTAAATTGTACATGTAAAATTTTCTAT [XGTACX_site7158] | 11.1 ± 0.52 |
| TATATATGTATGTATTGTACAATTAAAAATATGTAT [XGTACX_site3990] | 10.8 ± 0.43 |
| ATTATGTATATAAATTAACACACATATGTGGTTAAT [CACACA_site9028] | 9.9 ± 0.14 |
| ACGGGTCAATATATGCGTACTTATTTAAATAATTAA [XGTACX_site1518] | 11.5 ± 1.1 |
| AATAATATAGATTGTACACACAAAATGGGAAAAAAA [CACACA_site1886] | 11.4 ± 0.83 |
| ATAAATGGAAACAAAAGTACTAAAAAAAAAAAATAA [XGTACX_site1510] | 11.1 ± 0.76 |
| AAAAAAAAAAAAGATACACACAAAAATGAATATATA [CACACA_site2099] | 9.93 ± 0.12 |
| ATATATATATATAACTGTACTTATATATACATTTTA [XGTACX_site8605] | 11.2 ± 0.93 |
| ATATATATATATATATGTACATATATATATAATTTT [XGTACX_site4146] | 11.2 ± 0.73 |
| TTTTATCACATTATTGCACACACATAAAGAAAAAAA [CACACA_site8922] | 10.3 ± 0.43 |
| ATCAAGCACCAACACACACACACACCCCCACCCACA [CACACA_site370] | 11 ± 0.48 |
| TAAATAAATAAAAAAACACACATATATATATATATA [CACACA_site4029] | 10.3 ± 0.87 |
| ATATAATAAAATGACACACGCATATATATATATATA [CACACA_site2789] | 10.1 ± 0.26 |
| TTATATTTATTTATTTGTACATATTTTTTTTTATAT [XGTACX_site1669] | 11.2 ± 0.67 |
| TTTCTTTTTAAATATATACACACCGTGGGTACATAT [CACACA_site9102] | 11.4 ± 1 |
| ATTAATATTCTATATGCATGTGAACCATGGTATATA [TGCATGCA_site430] | 10.1 ± 0.15 |

| Sequence | gcPBM binding intensity (ln) |
| --- | --- |
| TCATATCTTTTGAGCACACATATATATATATAAAGG [CACACA_site3338] | 10.3 ± 0.27 |
| ATAAAATATTAATTTTAAATTAATCAATATATATAA [GTGCAC_negctrl_site474] | 9.63 ± 0.071 |
| TATGTGTTTATTTGGTGTACATACTAATAAATATAC [XGTACX_site1682] | 11.4 ± 0.82 |
| CCTAAATTATATTATGCACACTTAAAAATATATTTA [CACACA_site5861] | 10.1 ± 0.25 |
| AGGCTCAAATCTAGGTGTACCATTATCGTTGTATCT [XGTACX_site4730] | 11.1 ± 0.69 |
| ATTTTTTCTTATAATGCATGTAGAAAACCGTACAGC [TGCATGCA_site57] | 11 ± 0.71 |
| ATATCACATATATATATATATATATATATATATATA [XGTACX_negctrl_site463] | 9.83 ± 0.4 |
| AAAATATAAATTCATGTGCACATATATATTTTGTTA [GTGCAC_site9782] | 10.23 ± 0.078 |
| AGGAAAAAATCGAGTAGTACACATTTAGAAATATAA [XGTACX_site8019] | 11.5 ± 0.9 |
| TATATACATATATACACACACATATATTATATATAT [CACACA_site275] | 9.955 ± 0.035 |
| GTATGTATATTTATCTGTACATATTTATGTATTCTT [XGTACX_site2112] | 11.2 ± 0.64 |
| AACAAGGCCCGGTACTGTACATTTTTTCATAACATT [XGTACX_site6134] | 11.2 ± 0.47 |
| GAAAATAAAAAATATGAACACACATATATAACAAAA [CACACA_site7975] | 9.97 ± 0.12 |
| TCCTAATATATGTATGCACACACAATATATACATAT [CACACA_site9111] | 10.2 ± 0.19 |
| AAAAAAATTAAACATACACACGTTACTATTTTTATA [CACACA_site5009] | 9.83 ± 0.014 |
| TATAAATATAAAAGGAGTACAAATATATATATATAT [XGTACX_site1386] | 11.5 ± 0.99 |
| AGTTATAATAAAAAATGTACGTATTATCATTAAGAA [XGTACX_site4244] | 11.4 ± 0.76 |
| TTTTTTTTTATAGCTAAACACACATAAGAATATATG [CACACA_site8282] | 10.1 ± 0.085 |
| TTTCATTCTGGTATCACACATTTATTTTCTAGTTTA [CACACA_site4286] | 10.215 ± 0.007 |
| AAAAAAAAAAAAAACACACATACACATATATTTTTA [CACACA_site3893] | 10 ± 0.16 |
| AAAATTGATATATGCACACATATATATATTAAATAT [CACACA_site763] | 9.76 ± 0.028 |
| GGAACTTTTGGAGGTGCATGCGGAGCAATCTTTTCA [TGCATGCA_site454] | 9.855 ± 0.092 |
| TTTATGTAGGAACTAACACACATTGTAAGATTCAGA [CACACA_site1998] | 9.985 ± 0.064 |

| Sequence | gcPBM binding intensity (ln) |
| --- | --- |
| CCCCTTAATTAAAGGAGTACTATTTGTGAATAATAT [XGTACX_site4715] | 11.6 ± 0.94 |
| TTATTAATTTATAAATGTACGAATTTTTTATTTAAC [XGTACX_site7605] | 11 ± 0.69 |
| CATATCAATAATATCACACATATATGTGATTTTATT [CACACA_site5053] | 9.625 ± 0.035 |
| TTTAATATTAATAATTGTACATTTTCATAAATACGC [XGTACX_site2837] | 11 ± 0.54 |
| TATTAATAATTAAGTTGTACATTAATTAATATACTG [XGTACX_site6994] | 11.1 ± 0.54 |
| TTTAAACCTTAATATTGTACGCAAAAAAAAAAAGAA [XGTACX_site3757] | 11.6 ± 1 |
| ATATGCAGAGACTGTTTGCACTTTTTTATTTTATGT [GTGCAC_site9695] | 10.19 ± 0.035 |
| TGAAAAAATATAATTTGTACATATCAGGCAAAAATG [XGTACX_site1824] | 10.9 ± 0.45 |
| CCTAGAAAAAAGAACTGTACATATATATATAAATAT [XGTACX_site1680] | 11.2 ± 0.61 |
| TTAATTGAAACTTATTGTACTTTTTTTTTTTTTTTT [XGTACX_site8162] | 11.6 ± 0.86 |
| ATAAATAAAAATAGAACACACATATGTTTTTTTTTT [CACACA_site3556] | 9.6 ± 0.3 |
| AGGACAAGGGTTACATGTACATATATATATATATAT [XGTACX_site901] | 11.1 ± 0.43 |
| AAGTTATTTATATATACACACAAATATAAATAATAT [CACACA_site1228] | 9.97 ± 0.014 |
| ATTATAATTACTCTAGTGCATTATAAATATGAATAA | 9.71 ± 0.13 |
| CTCAAATTTATTAGTGGTACATAACCAAGGAAATAA [XGTACX_site225] | 11.3 ± 0.73 |
| AATGTGAAAACGTGTACACATTTTATTTAATTTATC [CACACA_site5966] | 11.6 ± 0.98 |
| AAAAAATAAAACATATATAATATATAATATATATAT [GTGCAC_negctrl_site447] | 9.38 ± 0.23 |
| AAAAAAATAATAAAAAGTACAAAATGTAGAAAATGT [XGTACX_site5018] | 11.1 ± 0.59 |
| ATAAATTATATTATTGAACACACGTTTGGTAATGTT [CACACA_site2662] | 10.1 ± 0.18 |
| TTTATTAATTTATAGTGTACATATTAATAATATATT [XGTACX_site7949] | 11.3 ± 0.68 |
| ATATATATTATATATTGTACATATTATATTCATTAT [XGTACX_site1766] | 11 ± 0.48 |
| CACAGACACGGACACACACACATATATAATATATAT [CACACA_site4495] | 11.3 ± 0.86 |
| AAGATATGAACATTTTGTACTTAAAAATTCAATATT [XGTACX_site7103] | 11 ± 0.64 |

| Sequence | gcPBM binding intensity (ln) |
| --- | --- |
| TTATATTAATTTTGTTGTACTATTTGTGCATTAAAT [XGTACX_site4790] | 11.2 ± 0.8 |
| GATTATACAAAATATACACACGTGTACAGAAATATT [CACACA_site8305] | 11.5 ± 0.76 |
| ATATATTTATTTATATGTACATATTATATATTATAG [XGTACX_site3371] | 11.2 ± 0.75 |
| TACATACACAAATACACACACAAATACATACACAAA [CACACA_site704] | 10.2 ± 0.41 |
| AAGGATAATATATTAGAACACACATATATATGTAAA [CACACA_site7942] | 9.915 ± 0.007 |
| TTTATATAAAATTATTGTACAGTTTTAATATTTTAA [XGTACX_site6807] | 11.2 ± 0.9 |
| TAAACAAATAAATATTGTACATTTTTTCCTTTTAAT [XGTACX_site5594] | 10.8 ± 0.47 |
| ATATTTTATCATGTTTAATATTTATGTGGACATAAA [GTGCAC_negctrl_site275] | 11 ± 0.91 |
| TATTATGTTTATTAAACATGCATATATTTATTTATA [TGCATGCA_site187] | 9.81 ± 0.22 |
| ATCAAAAACATACCTACACACACAATATGTATATAT [CACACA_site9171] | 10.1 ± 0.13 |
| TATTTTATTTTTTTATGTACACAAAAAAAAAAAAAA [XGTACX_site945] | 11.5 ± 1 |
| TCACTATAATAATTTACACACATTTTAAGAAAATGG [CACACA_site5867] | 10 ± 0.18 |
| ACATTTTATATATGTAGTACATATTATAGATAATTT [XGTACX_site1976] | 11.5 ± 0.79 |
| AGTTGGATACGAAGATGTACAATAATAATAATTAAG [XGTACX_site3561] | 11.1 ± 0.65 |
| CTATTATCGGTTCCTACACACAAATATATATGTCTA [CACACA_site3579] | 10.29 ± 0.078 |
| ATATAGTTGTCATATTGTACACTTTAGGGTTGGTTA [XGTACX_site7339] | 11 ± 0.66 |
| GCTTATTAATATCATACACACATAGATATATTTATA [CACACA_site3104] | 10 ± 0.12 |
| AATATATAAATGTTGTGTACTAAGCAATATATTTTA [XGTACX_site2483] | 10.9 ± 0.64 |
| ATTCGTCACATTTTTTGATATATATATATATATATA [CACACA_negctrl_site1785] | 10.2 ± 0.45 |
| TAAAAAATATAAACTGCACACACACTAATAAAGAAA [CACACA_site8119] | 10.18 ± 0.099 |
